About 14,000 (4.5%) of roughly 310,000 compounds showed an effect of 50% or more. The effect is printed as a negative number. The list shows a part of the results.
Each compound was assayed against human ether-à-go-go-related gene (hERG) potassium channel (human, UniProt Q12809) (assay: primary screen, population patch clamp on CHO cells stably expressing hERG).
human ether-à-go-go-related gene (hERG) potassium channel, sequence (Q12809 whole entry, looked up): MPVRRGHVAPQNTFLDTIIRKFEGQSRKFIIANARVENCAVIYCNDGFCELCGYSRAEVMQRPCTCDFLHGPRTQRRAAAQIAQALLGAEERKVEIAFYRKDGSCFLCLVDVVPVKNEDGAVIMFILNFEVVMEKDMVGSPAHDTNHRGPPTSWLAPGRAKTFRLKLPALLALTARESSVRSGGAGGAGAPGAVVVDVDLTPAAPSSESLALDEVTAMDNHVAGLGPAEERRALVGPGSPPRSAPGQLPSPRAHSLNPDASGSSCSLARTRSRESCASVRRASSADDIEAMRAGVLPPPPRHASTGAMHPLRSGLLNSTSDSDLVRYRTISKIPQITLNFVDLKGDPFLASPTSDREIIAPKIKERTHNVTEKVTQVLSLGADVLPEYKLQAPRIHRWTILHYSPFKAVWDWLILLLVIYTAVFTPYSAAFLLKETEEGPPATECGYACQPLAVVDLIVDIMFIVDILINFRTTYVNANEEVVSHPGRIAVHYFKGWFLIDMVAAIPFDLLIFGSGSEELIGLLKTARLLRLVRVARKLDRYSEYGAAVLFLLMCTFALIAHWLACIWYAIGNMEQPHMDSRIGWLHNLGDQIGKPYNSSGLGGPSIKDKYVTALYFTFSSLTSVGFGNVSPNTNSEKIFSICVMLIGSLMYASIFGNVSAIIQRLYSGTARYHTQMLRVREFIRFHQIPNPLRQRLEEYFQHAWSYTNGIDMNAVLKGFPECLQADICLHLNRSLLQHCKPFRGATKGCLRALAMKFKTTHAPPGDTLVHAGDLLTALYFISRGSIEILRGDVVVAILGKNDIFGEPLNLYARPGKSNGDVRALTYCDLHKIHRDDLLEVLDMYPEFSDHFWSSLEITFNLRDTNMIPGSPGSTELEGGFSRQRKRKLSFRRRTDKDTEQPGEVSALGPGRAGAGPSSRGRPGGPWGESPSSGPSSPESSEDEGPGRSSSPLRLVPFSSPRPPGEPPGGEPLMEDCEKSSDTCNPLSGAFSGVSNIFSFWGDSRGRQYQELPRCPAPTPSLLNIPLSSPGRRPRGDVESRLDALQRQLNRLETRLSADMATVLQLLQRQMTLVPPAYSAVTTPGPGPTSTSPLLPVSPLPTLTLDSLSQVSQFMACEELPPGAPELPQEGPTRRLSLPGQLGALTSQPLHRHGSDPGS
`O=C(Cn1nnc(-c2cccs2)n1)NNC(=O)c1ccccc1Cl` was tested, and the “hERG current change (%, negative = inhibition) at 10uM” value was -2.69%. `COc1ccc(NC(=O)c2[nH]c(C)c(C(C)=O)c2C)cc1` was tested, and the “hERG current change (%, negative = inhibition) at 10uM” value was 29%. `CCCN(C(=O)CSCc1c(C)noc1C)c1c(N)n(Cc2ccccc2)c(=O)[nH]c1=O` was tested, and the “hERG current change (%, negative = inhibition) at 10uM” value was 7.94%. With `COc1cccc(/C=C2/SC(=S)N(CC(=O)NNC(=O)c3ccccc3OC)C2=O)c1` the “hERG current change (%, negative = inhibition) at 10uM” value was -0.389%. For `COC(=O)N/N=C/c1ccccc1`, the “hERG current change (%, negative = inhibition) at 10uM” value was 13.5%. With `Cc1ccc(OCC(=O)Nc2nnc(-c3ccco3)s2)cc1` the “hERG current change (%, negative = inhibition) at 10uM” value was 4.41%. `Cc1ccc(Cn2ccc(=O)c(Cc3c(Cl)cccc3Cl)c2C)cc1` was tested, and the “hERG current change (%, negative = inhibition) at 10uM” value was -20.2%. With `COc1ccc(NC(=S)NCCc2ccc(Cl)cc2)c(OC)c1` the “hERG current change (%, negative = inhibition) at 10uM” value was -17.1%. With `CCN1CCN(CCC(=O)Nc2ccc(C)cc2)CC1.Cl` the “hERG current change (%, negative = inhibition) at 10uM” value was -8.34%. With `CN(C)/C=C/C(=O)c1ccc(Br)cc1` the “hERG current change (%, negative = inhibition) at 10uM” value was -15.7%. In the case of `CNC(=O)CN(c1cc(C)ccc1OC)S(=O)(=O)c1ccc(C)cc1`, the “hERG current change (%, negative = inhibition) at 10uM” value is reported as -0.703%. In the case of `O=C1CCCC2(O)C1C(c1cccc(Br)c1)NC(=O)N2Cc1ccccc1` (centres unmarked), the “hERG current change (%, negative = inhibition) at 10uM” value is reported as 12.3%. For `O=C(O)/C=C/c1ccc(OCCCF)cc1`, the “hERG current change (%, negative = inhibition) at 10uM” value was 20.3%. For `O=C(O)CCN1C(=O)C(=C2CCCCCC2)SC1=S`, the “hERG current change (%, negative = inhibition) at 10uM” value was 0.436%. In the case of `CCOc1ccccc1Nc1nnc(SCc2ccc(C(=O)OC)o2)s1`, the “hERG current change (%, negative = inhibition) at 10uM” value is reported as -36.2%. In the case of `COc1cccc(C2c3[nH]c4ccccc4c3C[C@H]3C(=O)N(C4CCN(Cc5ccccc5)CC4)CC(=O)N23)c1` (some centres unmarked), the “hERG current change (%, negative = inhibition) at 10uM” value is reported as -49%. With `O=C(CCC(=O)N/N=C/c1c[nH]c2ccccc12)NCc1ccccc1` the “hERG current change (%, negative = inhibition) at 10uM” value was 17.2%. In the case of `O=C(Nc1ccc(F)cc1)c1cc2c(s1)CCCC2`, the “hERG current change (%, negative = inhibition) at 10uM” value is reported as 5.88%. For `O=C(Cn1cc([N+](=O)[O-])ccc1=O)NCC1COc2ccccc2O1` (centres unmarked), the “hERG current change (%, negative = inhibition) at 10uM” value was -3.82%. `CC(=O)c1cccc(NC(=O)N[C@@H](CC(C)C)C(=O)O)c1` was tested, and the “hERG current change (%, negative = inhibition) at 10uM” value was -2.5%. `Fc1ccc(-c2csc(/C=C/c3ccc4c(c3)OCO4)n2)cc1` was tested, and the “hERG current change (%, negative = inhibition) at 10uM” value was 13.2%. With `O=C(CSc1ncn[nH]1)c1ccccc1` the “hERG current change (%, negative = inhibition) at 10uM” value was 18.6%. `C/C(=N\Nc1cccc2cccnc12)c1ccc(N)cc1` was tested, and the “hERG current change (%, negative = inhibition) at 10uM” value was 8.11%. For `COc1ccc2[nH]cc(CCNC(=O)c3ccccc3Cl)c2c1`, the “hERG current change (%, negative = inhibition) at 10uM” value was 10.7%. For `O=C(Cn1cc(C(F)(F)F)ccc1=O)N/N=C/c1ccc(Cl)c(Cl)c1`, the “hERG current change (%, negative = inhibition) at 10uM” value was -15.4%. `CN(C)C(=O)c1ccc(NC(=O)c2cccc(S(=O)(=O)N3CCCCCC3)c2)cc1` was tested, and the “hERG current change (%, negative = inhibition) at 10uM” value was -18.2%. With `CCN(CC)CCOc1nc(C)nc2c1oc1ccccc12.Cl` the “hERG current change (%, negative = inhibition) at 10uM” value was -64.6%. For `COc1ccc(C=NC(CO)C(O)c2ccc([N+](=O)[O-])cc2)cc1` (centres unmarked), the “hERG current change (%, negative = inhibition) at 10uM” value was 18.2%. With `Cc1cccnc1NC(=O)NC(=O)c1ccc(C(C)(C)C)s1` the “hERG current change (%, negative = inhibition) at 10uM” value was -14.2%. With `Cc1ccc(Cl)cc1N1CCN(Cc2nc3c(c(=O)[nH]c(=O)n3C)n2Cc2ccccc2F)CC1` the “hERG current change (%, negative = inhibition) at 10uM” value was 0.179%. `Cc1cc(NCc2ccco2)n2c(nc3ccccc32)c1C#N` was tested, and the “hERG current change (%, negative = inhibition) at 10uM” value was -16.1%. In the case of `CCN(CC)S(=O)(=O)c1cc(C(=O)N2CCc3ccccc32)ccc1Cl`, the “hERG current change (%, negative = inhibition) at 10uM” value is reported as -16%. With `CN(C=[N+](C)C)c1cccc2c1C(=O)c1ccccc1C2=O.[Cl-]` the “hERG current change (%, negative = inhibition) at 10uM” value was -43%. With `Cc1ccc(-c2nc3c(c(=O)c4ccccc4n3C)c(=O)n2Cc2ccco2)cc1` the “hERG current change (%, negative = inhibition) at 10uM” value was 2.18%. In the case of `O=S(=O)(c1cccc(C(F)(F)F)c1)N1CCC(CO)(CCCc2ccccc2)CC1`, the “hERG current change (%, negative = inhibition) at 10uM” value is reported as -6.59%. In the case of `N#Cc1ccccc1S(=O)(=O)N1CCN(C(=O)c2cc(-c3ccccc3)nn2-c2ccccc2)CC1`, the “hERG current change (%, negative = inhibition) at 10uM” value is reported as 14.4%. `COC(c1ccccc1)c1nnc(CCC(=O)NCc2ccc3ncccc3c2)o1` (centres unmarked) was tested, and the “hERG current change (%, negative = inhibition) at 10uM” value was -43.3%. With `Cc1ccc(S(=O)(=O)c2nnn3c2nc(NCCCN2CCCC2=O)c2ccccc23)cc1C` the “hERG current change (%, negative = inhibition) at 10uM” value was -12.7%. For `CC1(C)C(=O)OC(c2ccco2)C(C)(C)C1=O` (centres unmarked), the “hERG current change (%, negative = inhibition) at 10uM” value was -3.15%. In the case of `CCOC(=O)CC(=O)CSc1nc2ccccc2c(=O)n1-c1ccc(C(=O)NCCOC)cc1`, the “hERG current change (%, negative = inhibition) at 10uM” value is reported as 0.133%. `CCN(c1ccccc1)S(=O)(=O)c1ccc(Cl)c(NC(=O)COC(=O)c2cc(O)c3ccccc3c2O)c1` was tested, and the “hERG current change (%, negative = inhibition) at 10uM” value was 18.7%. `Cc1cc(NC(=O)Cn2cc([N+](=O)[O-])cn2)no1` was tested, and the “hERG current change (%, negative = inhibition) at 10uM” value was 14.2%. For `COc1cc(C(=O)NC(=S)NCc2ccco2)cc(OC)c1OC`, the “hERG current change (%, negative = inhibition) at 10uM” value was 1.74%. In the case of `COc1ccc(CNC(=O)c2cnccn2)cc1`, the “hERG current change (%, negative = inhibition) at 10uM” value is reported as -2.48%. `CCOc1cc(C2C(C#N)=C(N)OC3=C2C(=O)CC(C)(C)C3)cc([N+](=O)[O-])c1O` (centres unmarked) was tested, and the “hERG current change (%, negative = inhibition) at 10uM” value was -25.2%. In the case of `CC(=O)NC(Cc1ccc(F)c(F)c1)C(=O)NC1CCN(c2nnnn2-c2ccccc2)CC1` (centres unmarked), the “hERG current change (%, negative = inhibition) at 10uM” value is reported as -54.6%. For `CC(C)n1c(-c2ccncc2)n[nH]c1=S`, the “hERG current change (%, negative = inhibition) at 10uM” value was 17.7%. With `CC1CN(C(=O)COC(=O)c2ccc(N)c([N+](=O)[O-])c2)CC(C)O1` (centres unmarked) the “hERG current change (%, negative = inhibition) at 10uM” value was -18.6%. With `O=C(CS(=O)(=O)c1ccc(F)cc1)Nc1nnc(-c2cccs2)o1` the “hERG current change (%, negative = inhibition) at 10uM” value was 13.3%. With `OCCOCCNc1ncnc2c1cnn2-c1ccccc1` the “hERG current change (%, negative = inhibition) at 10uM” value was 9.79%. With `COc1cccc(OC)c1C(=O)N1CCN(Cc2ccncc2)CC1` the “hERG current change (%, negative = inhibition) at 10uM” value was -3.9%. For `COc1ccc(NC(=O)CN2C(=O)COc3ccc(S(=O)(=O)N4CCOCC4)cc32)cc1Cl`, the “hERG current change (%, negative = inhibition) at 10uM” value was 12.8%. For `O=C(O)CCn1c(=O)c2ccccc2c2ccccc2c1=O`, the “hERG current change (%, negative = inhibition) at 10uM” value was 7.44%. With `O=S(=O)(NCc1ccc(F)cc1)c1ccc(Br)cc1Br` the “hERG current change (%, negative = inhibition) at 10uM” value was -15.8%. With `Cc1oc2cc3oc(=O)c(CC(=O)N[C@H](C(=O)N[C@@H](C(=O)O)c4ccccc4)C(C)C)c(C)c3cc2c1C` the “hERG current change (%, negative = inhibition) at 10uM” value was 1.66%. `Cc1ccc(NC(=O)C(=O)NCC2CCCN2S(=O)(=O)c2cccs2)cc1C` (centres unmarked) was tested, and the “hERG current change (%, negative = inhibition) at 10uM” value was -14.6%.
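Further: peak tail current of the secondary pulse compared with the same well before compound.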
